The whole screen tested about 310,000 compounds, of which about 14,000 (4.5%) showed an effect of 50% or more. The effect is printed as a negative number. This is one part of the list.
What follows are molecules tested against human ether-à-go-go-related gene (hERG) potassium channel (human, UniProt Q12809) (assay: primary screen, population patch clamp on CHO cells stably expressing hERG).
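Further: peak tail current of the secondary pulse compared with the same well before compound.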

Sequence of human ether-à-go-go-related gene (hERG) potassium channel (Q12809 whole entry, looked up): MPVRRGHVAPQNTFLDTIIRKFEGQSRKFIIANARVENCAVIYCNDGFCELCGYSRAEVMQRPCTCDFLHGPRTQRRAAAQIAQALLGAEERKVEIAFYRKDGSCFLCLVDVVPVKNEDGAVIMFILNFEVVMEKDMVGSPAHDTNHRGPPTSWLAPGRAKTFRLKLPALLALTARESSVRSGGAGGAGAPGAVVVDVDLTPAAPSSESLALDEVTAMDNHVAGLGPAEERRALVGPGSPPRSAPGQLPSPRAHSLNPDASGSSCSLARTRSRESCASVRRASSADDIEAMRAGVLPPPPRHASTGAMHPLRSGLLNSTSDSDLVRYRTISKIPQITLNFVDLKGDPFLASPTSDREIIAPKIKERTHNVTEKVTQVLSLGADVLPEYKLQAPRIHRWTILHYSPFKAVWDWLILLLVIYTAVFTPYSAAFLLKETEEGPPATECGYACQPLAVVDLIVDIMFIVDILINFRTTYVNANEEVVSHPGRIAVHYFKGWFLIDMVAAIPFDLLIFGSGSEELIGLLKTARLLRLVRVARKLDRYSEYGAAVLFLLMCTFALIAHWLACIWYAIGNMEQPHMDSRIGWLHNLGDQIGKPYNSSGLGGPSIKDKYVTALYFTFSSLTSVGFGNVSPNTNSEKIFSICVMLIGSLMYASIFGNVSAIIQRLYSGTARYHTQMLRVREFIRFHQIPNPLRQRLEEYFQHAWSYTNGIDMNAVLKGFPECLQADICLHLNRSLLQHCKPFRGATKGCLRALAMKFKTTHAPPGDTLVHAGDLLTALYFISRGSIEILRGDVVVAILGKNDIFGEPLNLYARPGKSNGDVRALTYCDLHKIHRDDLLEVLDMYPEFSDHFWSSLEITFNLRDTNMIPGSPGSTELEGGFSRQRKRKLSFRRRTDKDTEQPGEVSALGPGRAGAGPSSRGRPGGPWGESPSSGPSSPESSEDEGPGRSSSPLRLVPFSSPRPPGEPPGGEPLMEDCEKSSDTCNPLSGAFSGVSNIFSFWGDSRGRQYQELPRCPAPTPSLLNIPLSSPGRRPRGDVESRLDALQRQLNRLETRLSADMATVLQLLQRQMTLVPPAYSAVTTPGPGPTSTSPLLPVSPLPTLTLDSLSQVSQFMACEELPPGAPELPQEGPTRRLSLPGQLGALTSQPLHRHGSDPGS

| Compound | hERG current change (%, negative = inhibition) at 10uM |
| --- | --- |
| Cc1ccc(S(=O)(=O)Nc2ccccc2C(=O)N2CCCCC2)cc1 | -12.5% |
| CCC1(C)Cc2ccccc2-c2c1c(=O)n(Cc1ccccc1)c1nnnn21 (stereo not drawn) | -3.55% |
| O=C(Cn1ncc2c(=O)oc3ccccc3c21)NCCN1CCN(c2ccccc2F)CC1 | -28.4% |
| CCCC(C)c1nnc(NC(=O)CN2C(=O)c3ccccc3C2=O)s1 (stereo not drawn) | 7.6% |
| CCOC(=O)c1c(NC(=O)COC(=O)Cc2ccccc2[N+](=O)[O-])sc(C(=O)N(C)C)c1C | -68.9% |
| O=C(O)c1nn2c(C(F)(F)F)cc(-c3cccs3)nc2c1Cl | 1.4% |
| CCN(CC)c1ccc(C2C(C(=O)OCCOC)=C(C)NC3=C2C(=O)CCC3)cc1 (stereo not drawn) | -5.24% |
| O=C(/C=C/c1cccs1)c1cc(Cl)ccc1OC(=O)N1CCOCC1 | -28.1% |
| CCC(=O)OCC(=O)c1c(N)n(Cc2ccccc2)c(=O)n(C)c1=O | 0.825% |
| CC(C)(C)C(=O)Nc1ccc(NC(=O)c2ccco2)nc1 | 16.5% |
| O=C(NC(=S)N1CCN(c2ccc(C(F)(F)F)cc2[N+](=O)[O-])CC1)c1cccs1 | -23.6% |
| O=C(CNC(=O)c1ccc(F)cc1)N/N=C/c1cc(Br)ccc1OC(=O)/C=C/c1ccco1 | 5.01% |
| COc1ccc([C@H]2CC(=O)C=C(c3cccc(NC(C)=O)c3)C2)cc1 | -17.1% |
| CCS(=O)(=O)Nc1ccc(C2=NN(C(=O)c3ccco3)C(c3ccc(C)cc3)C2)cc1 (stereo not drawn) | -21% |
| CCOC(=O)c1nnn(-c2nonc2N)c1CNc1ccc(C)c(Br)c1 | 3.8% |
| Cc1cc(C)cc(NC(=O)C[n+]2ccccc2)c1.[Cl-] | 9.38% |
| Cc1c(Br)cc(C(=O)O)c(C)c1C | 24.1% |
| CCCc1ccc(OCCNC(=O)C2CCCCC2)cc1 | -5.33% |
| CCC(C)[C@H](NC(=O)NCc1cccs1)C(=O)O (stereo partly drawn) | 15.8% |
| CC1=C(C(=O)OCc2ccccc2)C(c2ccc([N+](=O)[O-])cc2)NC(=O)N1 (stereo not drawn) | -10.7% |
| CCNC(=O)CC1C(=O)N(c2ccc(C)cc2)C(=O)N1CCc1ccc(OC)c(OC)c1 (stereo not drawn) | -28% |
| O=C(Nc1ccc(S(=O)(=O)N2CCCC2)cc1)c1ccc([N+](=O)[O-])cc1 | 1.68% |

| Compound | hERG current change (%, negative = inhibition) at 10uM |
| --- | --- |
| Cc1cc(N2CCCC2)ccc1C=C(C#N)C#N | -13.2% |
| COCCNC(=O)c1cnn2c1NC(c1ccco1)CC2C(F)(F)F (stereo not drawn) | 9.9% |
| COc1ccc(N=C(C)c2sc3ccccc3c2O)cc1 | -15.1% |
| CC1CCCCN1CCNS(=O)(=O)c1ccc2c(c1)oc(=O)n2C (stereo not drawn) | 23.5% |
| N/C(Cc1nc(-c2ccc(Br)cc2)cs1)=N\O | 11.3% |
| COc1ccc(-c2cc(C(F)(F)F)nc(SCc3cccc(C(=O)O)c3)n2)cc1 | 14.1% |
| COc1cccc(N2C(=NC(=O)c3ccccc3)SC3CS(=O)(=O)CC32)c1 (stereo not drawn) | 3.44% |
| COc1ccc(OC)c(NC(=O)COc2ccc(Br)cc2)c1 | 13% |
| Cc1cc(F)ccc1S(=O)(=O)Nc1ccccc1C(=O)NCc1cccnc1 | -18.7% |
| CCC(=O)N1CCN(c2nc3ccc(Br)cc3s2)CC1 | -44.2% |
| Cc1ccc(C(=O)N2CC(C)CC(C)C2)cc1NC1=NC2CS(=O)(=O)CC2S1 (stereo not drawn) | 19.9% |
| O=C(Cc1c(F)cccc1Cl)c1ccc(O)cc1O | 3.62% |
| COc1ccc2c(c1)c(C(=O)CN1CCN(c3ccccc3)CC1)c(C)n2C | -45.1% |
| Cc1cc(C)cc(OCC(=O)Nc2ccc(F)cc2)c1 | 14.7% |
| Cc1ccc(C)n1-c1ccc(-c2nnco2)cc1 | 8.42% |
| COc1ccc(CCN(C)C2CCCN(C(=O)c3ccnn3C)C2)cc1OC (stereo not drawn) | -21.1% |
| C/C=C/c1ccc(OCC(=O)Nc2cc(Cl)ccc2-n2cncn2)c(OC)c1 | -29.5% |
| O=C(CN1C(=O)NC2(CCCc3ccccc32)C1=O)N1CCc2ccccc2C1 (stereo not drawn) | -17.3% |
| Cc1ccccc1NC(=O)c1cccc(N2C(=O)C3C4CC(C(Br)C4Br)C3C2=O)c1 (stereo not drawn) | 14.4% |
| O=C(Cc1ccc(Br)cc1)NCCCn1ccnc1 | -5.49% |
| COc1ccc(/C(C)=N/NC(=O)CNC(=O)c2cccnc2)cc1 | 12.5% |
| CCSc1nnc(NC(=O)CSc2nc3c(c(=O)n2C)SC(C)C3)s1 (stereo not drawn) | -11.5% |

| Compound | hERG current change (%, negative = inhibition) at 10uM |
| --- | --- |
| O=C(COC(=O)c1ccc(Br)cc1)NC(=O)NCc1ccccc1 | -7.46% |
| O=C(c1ccco1)N(CC1CCCO1)c1nc(-c2ccccc2)cs1 (stereo not drawn) | 2.22% |
| COc1cc(CNCCc2ccccc2)ccc1OCC(=O)NC(C)(C)C.Cl | -5.07% |
| Cc1noc(C(=O)Nc2c(C)n(C)n(-c3ccccc3)c2=O)c1Cl | 2.02% |
| COc1ccccc1NS(=O)(=O)c1cc(NC(=O)C2CC2)ccc1N1CCOCC1 | 45.4% |
| CCN(CC)CCN(C(=O)Cn1nnc(-c2ccc(C)o2)n1)C(C(=O)NC(C)(C)C)c1cccs1 (stereo not drawn) | -41.6% |
| Cc1cc(C)cc(NC(=O)CSc2n[nH]c(-c3cccnc3)n2)c1 | -9.91% |
| O=C(O)CCCCCNc1nc2ncn(Cc3ccccc3)c2c(=O)[nH]1 | 3.46% |
| Cc1ccc(Cn2nc(C(=O)Nc3ccc(Br)cc3)cc2C)cc1 | 13.2% |
| CCOc1c(C(N)=O)c(-c2ccccc2)c2c(=O)[nH]c3ccccc3n12 | 19.5% |
| CCN(CC)S(=O)(=O)c1ccc(-c2nnco2)cc1 | -3.59% |
| COc1ccc(CCN(C)C(=O)CN2C(=O)c3ccccc3S2(=O)=O)cc1OC | 4.1% |
| COc1ccc(OCC(=O)Nc2cccc(NC(=O)c3ccco3)c2)cc1 | -11.3% |
| COc1ccccc1C1=NNC(=Nc2cccc(S(=O)(=O)N(C)C)c2)SC1 | -7.3% |
| Cc1ccc(NS(=O)(=O)c2ccc(NC(=O)c3ccccc3C(=O)O)cc2)c(C)c1 | 10.8% |
| CC(C)NC(=S)NC(=O)/C=C/c1cccc2ccccc12 | 14.1% |
| Cc1cnc2ncc3sccc3c2c1 | 13.1% |
| O=C(c1ccc(-c2ccc([N+](=O)[O-])cc2)o1)N1CCCC(C(F)(F)F)C1 (stereo not drawn) | -17% |
| Cc1cc(C)cc(NC(=S)N2CCN(S(C)(=O)=O)CC2)c1 | 4.55% |
| CCCn1c(SCC(=O)NC2CC2)nnc1-c1cccs1 | -0.0347% |
| Cc1cc(NC(=O)COC(=O)C2CC(=O)N(c3ccc(Br)cc3)C2)no1 (stereo not drawn) | -14.6% |
| O=C(C1CCN(S(=O)(=O)c2ccc(Br)s2)CC1)N1CCc2ccccc21 | -46.8% |

| Compound | hERG current change (%, negative = inhibition) at 10uM |
| --- | --- |
| Cc1ccc(-n2ncc(C(=O)NCC3CCN(C4CCCC4)C3)c2C2CCN(C(=O)OC(C)(C)C)CC2)cc1C (stereo not drawn) | 6.57% |
| COc1ccccc1N1CCN(S(=O)(=O)c2cc(C)sc2C)CC1 | -6.36% |
| Cc1ccc(S(=O)(=O)N(CC(=O)Nc2ccccc2C(=O)O)c2ccccc2)cc1 | 23.9% |
| COC(=O)CC1C(=O)NCCN1C(=O)c1ccc([N+](=O)[O-])cc1 (stereo not drawn) | 9.64% |
| Cc1ccc2nc3c(cc2c1)CC1(C(=O)N(C)C(=O)N(C)C1=O)C1CCCCN31 (stereo not drawn) | -13.5% |
| COc1cccc(NC(=O)COC(=O)CNC(=O)C2CCCCC2)c1 | 9.89% |
| Cc1noc(C)c1CSCC(=O)NC1=NCCS1 | 6.86% |
| O=C(N/N=C/c1ccco1)c1cc(-c2ccc(Br)s2)[nH]n1 | 4.07% |
| O=C(CN1CCN(C(=O)C2COc3ccccc3O2)CC1)Nc1ccccc1 (stereo not drawn) | -66.2% |
| CC1(OC(=O)CCc2ccccc2)C(=O)C=C2C=C(c3ccc(C#N)cc3)N(C3CC3)C=C2C1=O (stereo not drawn) | -51.7% |
| CC(C)Nc1nnc(SCC(=O)Nc2ccc(F)cc2)s1 | -0.0817% |
| Nc1nonc1-n1nnc(C(=O)N/N=C/c2cccs2)c1CSc1ccccc1 | 22.8% |
| O=C1CCCN1CCCNS(=O)(=O)c1cccc(F)c1 | 25.9% |
| C=Cc1ccc(Cn2nc(-c3ccc(C)cc3)ccc2=O)cc1 | 16.3% |
| O=C(CN1C(=O)C2CC=CCC2C1=O)Nc1nnc(C2CC2)s1 (stereo not drawn) | 6.01% |
| CCSc1ncc(Cl)c(C(=O)Nc2ccc(S(=O)(=O)Nc3ncccn3)cc2)n1 | 2.44% |
| C/C(=N\NC(=O)c1ccc(N2CCCC2=O)cc1)c1ccccc1 | 10.5% |
| C[C@@H]1NC(=O)c2cc([N+](=O)[O-])cc(I)c2NCC[C@@H](C(N)=O)NC(=O)[C@H](CC(N)=O)NC1=O | 11.2% |
| Cc1cc(O)c(C(=O)/C=C/c2ccc(Cl)cc2)c(=O)o1 | 23.2% |
| O=C(NCCN1CCOCC1)C1CC(=O)N(c2ccc(F)cc2)C1 (stereo not drawn) | -8.03% |
| CC(=O)OC(C(=O)NCc1ccc(F)cc1)c1ccccn1 (stereo not drawn) | 4.52% |
